We go through 7 molecules from US10428149 (dated 2019).

One experiment has as its target TRAIL-R1 (DR4) (human, UniProt O00220). Nature of the experiment: ELISA.
Experiment [1] addresses T1, TRAIL-R2 (DR5) (human, UniProt O14763). Nature of the experiment: ELISA. (In general: An ELISA detects its analyte on a solid surface through an enzyme-linked reagent.)
For experiment [2], the target named is T2, EGFR (human, UniProt P00533). Briefly: ELISA.
In experiment [3] the target is T1, TRAIL-R2 (DR5). Briefly: ELISA. The source holds these as a separate data set.
Experiment [4] deals with T2, EGFR. Nature of the experiment: FACS, Colo205 cells.
Experiment [5] has as its target T1, TRAIL-R2 (DR5). Nature of the experiment: FACS, Colo205 cells. For orientation: In flow cytometry, cells or beads pass a laser one at a time.

B1: scTRAIL3-FAVSGAA-"W"-Fc (designed binder)
chain: METDTLLLWVLLLWVPGSTGDYKDDDDKGGGGSGTGGAAAHITGTRGRSNTLSSPNSKNEKALGRKINSWESSRSGHSFLSNLHLRNGELVIHEKGFYYIYSQTYFRFQEEIKENTKNDKQMVQYIYKYTSYPDPILLMKSARNSCWSKDAEYGLYSIYQGGIFELKENDRIFVSVTNEHLIDMDHEASFFGAFAVSGAAAHITGTRGRSNTLSSPNSKNEKALGRKINSWESSRSGHSFLSNLHLRNGELVIHEKGFYYIYSQTYFRFQEEIKENTKNDKQMVQYIYKYTSYPDPILLMKSARNSCWSKDAEYGLYSIYQGGIFELKENDRIFVSVTNEHLIDMDHEASFFGAFAVSGAAAHITGTRGRSNTLSSPNSKNEKALGRKINSWESSRSGHSFLSNLHLRNGELVIHEKGFYYIYSQTYFRFQEEIKENTKNDKQMVQYIYKYTSYPDPILLMKSARNSCWSKDAEYGLYSIYQGGIFELKENDRIFVSVTNEHLIDMDHEASFFGAFAVSGGSGEAAAKEAAAKEAAAKEAAAKEAAAKGSGG[sequence of human IgG1 Fc omitted]
Usually EC50 stands for the concentration that produces a half-maximal response. A higher EC50 goes with a less potent agent. Consider B1, for which the EC50 with TRAIL-R1 (DR4) was 3.91 nM; with TRAIL-R2 (DR5) [1], 0.54 nM.

B2: scTRAIL3-FAVSGAA-20 G/S-Fc (designed binder)
chain: METDTLLLWVLLLWVPGSTGDYKDDDDKGGGGSGTGGAAAHITGTRGRSNTLSSPNSKNEKALGRKINSWESSRSGHSFLSNLHLRNGELVIHEKGFYYIYSQTYFRFQEEIKENTKNDKQMVQYIYKYTSYPDPILLMKSARNSCWSKDAEYGLYSIYQGGIFELKENDRIFVSVTNEHLIDMDHEASFFGAFAVSGAAAHITGTRGRSNTLSSPNSKNEKALGRKINSWESSRSGHSFLSNLHLRNGELVIHEKGFYYIYSQTYFRFQEEIKENTKNDKQMVQYIYKYTSYPDPILLMKSARNSCWSKDAEYGLYSIYQGGIFELKENDRIFVSVTNEHLIDMDHEASFFGAFAVSGAAAHITGTRGRSNTLSSPNSKNEKALGRKINSWESSRSGHSFLSNLHLRNGELVIHEKGFYYIYSQTYFRFQEEIKENTKNDKQMVQYIYKYTSYPDPILLMKSARNSCWSKDAEYGLYSIYQGGIFELKENDRIFVSVTNEHLIDMDHEASFFGAFAVSGGSGGGGSGGGGSGGGGSGG[sequence of human IgG1 Fc omitted]
For B2, the EC50 with TRAIL-R1 (DR4) was 4.45 nM; with TRAIL-R2 (DR5) [1] it was 0.43 nM.

B3: scTRAIL3-FAVSGAA-25 G/S-Fc (designed binder)
chain: METDTLLLWVLLLWVPGSTGDYKDDDDKGGGGSGTGGAAAHITGTRGRSNTLSSPNSKNEKALGRKINSWESSRSGHSFLSNLHLRNGELVIHEKGFYYIYSQTYFRFQEEIKENTKNDKQMVQYIYKYTSYPDPILLMKSARNSCWSKDAEYGLYSIYQGGIFELKENDRIFVSVTNEHLIDMDHEASFFGAFAVSGAAAHITGTRGRSNTLSSPNSKNEKALGRKINSWESSRSGHSFLSNLHLRNGELVIHEKGFYYIYSQTYFRFQEEIKENTKNDKQMVQYIYKYTSYPDPILLMKSARNSCWSKDAEYGLYSIYQGGIFELKENDRIFVSVTNEHLIDMDHEASFFGAFAVSGAAAHITGTRGRSNTLSSPNSKNEKALGRKINSWESSRSGHSFLSNLHLRNGELVIHEKGFYYIYSQTYFRFQEEIKENTKNDKQMVQYIYKYTSYPDPILLMKSARNSCWSKDAEYGLYSIYQGGIFELKENDRIFVSVTNEHLIDMDHEASFFGAFAVSGGSGGGGSGGGGSGGGGSGGGGSGG[sequence of human IgG1 Fc omitted]
For the molecule B3, the figures for the EC50 with TRAIL-R1 (DR4) and with TRAIL-R2 (DR5) [1] were 3.24 nM and 0.42 nM, respectively.

B4: scTRAIL3-FAVSGAA-Fc (designed binder)
chain: METDTLLLWVLLLWVPGSTGDYKDDDDKGGGGSGTGGAAAHITGTRGRSNTLSSPNSKNEKALGRKINSWESSRSGHSFLSNLHLRNGELVIHEKGFYYIYSQTYFRFQEEIKENTKNDKQMVQYIYKYTSYPDPILLMKSARNSCWSKDAEYGLYSIYQGGIFELKENDRIFVSVTNEHLIDMDHEASFFGAFAVSGAAAHITGTRGRSNTLSSPNSKNEKALGRKINSWESSRSGHSFLSNLHLRNGELVIHEKGFYYIYSQTYFRFQEEIKENTKNDKQMVQYIYKYTSYPDPILLMKSARNSCWSKDAEYGLYSIYQGGIFELKENDRIFVSVTNEHLIDMDHEASFFGAFAVSGAAAHITGTRGRSNTLSSPNSKNEKALGRKINSWESSRSGHSFLSNLHLRNGELVIHEKGFYYIYSQTYFRFQEEIKENTKNDKQMVQYIYKYTSYPDPILLMKSARNSCWSKDAEYGLYSIYQGGIFELKENDRIFVSVTNEHLIDMDHEASFFGAFAVSGSGNGTSNGTSGSSGG[sequence of human IgG1 Fc omitted]
B4: the values for the EC50 with TRAIL-R1 (DR4) and in the experiment with TRAIL-R2 (DR5) [1] were 6.36 nM and 0.69 nM, respectively.

B5: scFvhu225-Fc-scTRAIL3-FLVGGGPQRVA (antibody)
chain: DYKDDDDKGGGGSGTEVQLVESGGGLVQPGGSLRLSCAASGFSLTNYGVHWVRQAPGKGLEWLGVIWSGGNTDYNTPFTSRFTISRDNSKNTLYLQMNSLRAEDTAVYYCARALTYYDYEFAYWGQGTTVTVSSGGGGSGGGGSGGGGSDIQLTQSPSFLSASVGDRVTITCRASQSIGTNIHWYQQKPGKAPKLLIKYASESISGVPSRFSGSGSGTEFTLTISSLQPEDFATYYCQQNNNWPTTFGAGTKLEIKRAAAGGSGG[sequence of human IgG1 Fc omitted]GGSGGGSSGGGPQRVAAHITGTRGRSNTLSSPNSKNEKALGRKINSWESSRSGHSFLSNLHLRNGELVIHEKGFYYIYSQTYFRFQEEIKENTKNDKQMVQYIYKYTSYPDPILLMKSARNSCWSKDAEYGLYSIYQGGIFELKENDRIFVSVTNEHLIDMDHEASFFGAFLVGGGPQRVAAHITGTRGRSNTLSSPNSKNEKALGRKINSWESSRSGHSFLSNLHLRNGELVIHEKGFYYIYSQTYFRFQEEIKENTKNDKQMVQYIYKYTSYPDPILLMKSARNSCWSKDAEYGLYSIYQGGIFELKENDRIFVSVTNEHLIDMDHEASFFGAFLVGGGPQRVAAHITGTRGRSNTLSSPNSKNEKALGRKINSWESSRSGHSFLSNLHLRNGELVIHEKGFYYIYSQTYFRFQEEIKENTKNDKQMVQYIYKYTSYPDPILLMKSARNSCWSKDAEYGLYSIYQGGIFELKENDRIFVSVTNEHLIDMDHEASFFGAFLVG
Turning to B5, the results for the EC50 in the experiment with EGFR [2], with TRAIL-R2 (DR5) [3] and with EGFR [4] were 0.86 nM, 1.52 nM and 1.33 nM, respectively.

B6: Fc-scTRAIL3-FLVGGGPQRVA (designed binder)
chain: DYKDDDDKGGGGSGT[sequence of human IgG1 Fc omitted]GGSGGGSSGGGPQRVAAHITGTRGRSNTLSSPNSKNEKALGRKINSWESSRSGHSFLSNLHLRNGELVIHEKGFYYIYSQTYFRFQEEIKENTKNDKQMVQYIYKYTSYPDPILLMKSARNSCWSKDAEYGLYSIYQGGIFELKENDRIFVSVTNEHLIDMDHEASFFGAFLVGGGPQRVAAHITGTRGRSNTLSSPNSKNEKALGRKINSWESSRSGHSFLSNLHLRNGELVIHEKGFYYIYSQTYFRFQEEIKENTKNDKQMVQYIYKYTSYPDPILLMKSARNSCWSKDAEYGLYSIYQGGIFELKENDRIFVSVTNEHLIDMDHEASFFGAFLVGGGPQRVAAHITGTRGRSNTLSSPNSKNEKALGRKINSWESSRSGHSFLSNLHLRNGELVIHEKGFYYIYSQTYFRFQEEIKENTKNDKQMVQYIYKYTSYPDPILLMKSARNSCWSKDAEYGLYSIYQGGIFELKENDRIFVSVTNEHLIDMDHEASFFGAFLVG
Take B6: the 50% effective concentration (EC50) with TRAIL-R2 (DR5) [5] is above 100 nM; with TRAIL-R1 (DR4) it was 1.63 nM; with TRAIL-R2 (DR5) [1], 0.34 nM; in the experiment with TRAIL-R2 (DR5) [3], 2.42 nM.

B7: Fc-scTRAIL3-FAVSGAA (designed binder)
chain: METDTLLLWVLLLWVPGSTGDYKDDDDKGGGGSGT[sequence of human IgG1 Fc omitted]GSGNGTSNGTSGSSGGAAAHITGTRGRSNTLSSPNSKNEKALGRKINSWESSRSGHSFLSNLHLRNGELVIHEKGFYYIYSQTYFRFQEEIKENTKNDKQMVQYIYKYTSYPDPILLMKSARNSCWSKDAEYGLYSIYQGGIFELKENDRIFVSVTNEHLIDMDHEASFFGAFAVSGAAAHITGTRGRSNTLSSPNSKNEKALGRKINSWESSRSGHSFLSNLHLRNGELVIHEKGFYYIYSQTYFRFQEEIKENTKNDKQMVQYIYKYTSYPDPILLMKSARNSCWSKDAEYGLYSIYQGGIFELKENDRIFVSVTNEHLIDMDHEASFFGAFAVSGAAAHITGTRGRSNTLSSPNSKNEKALGRKINSWESSRSGHSFLSNLHLRNGELVIHEKGFYYIYSQTYFRFQEEIKENTKNDKQMVQYIYKYTSYPDPILLMKSARNSCWSKDAEYGLYSIYQGGIFELKENDRIFVSVTNEHLIDMDHEASFFGAFAVS
As for B7, the EC50 with TRAIL-R1 (DR4) turned out to be 2.15 nM; with TRAIL-R2 (DR5) [1], 0.34 nM.
